Reference: PubChem BioAssay AID1508623 (National Center for Advancing Translational Sciences (NCATS), 2021)
Hit rate of the full screen: of about 48,000 compounds, about 450 (0.94%) were called active. Another 19% or so got no clear call; they are omitted. The call rests on the fitted dose curve; in most records, active means well fitted inhibition curve with a large enough effect; inconclusive means small, poorly fitted or top-dose-only effect; inactive means no such curve, though single readings can be large or run the other way. The list shows a part of the results.

Assay: Primary qHTS for Identification of Small Molecule Inhibitors of Huntingtin Promoter Activity; further: nearly all actives have a fitted effect of over 50% in size
Details: HEK293 HTT promoter firefly luciferase reporter (activity 0% = vehicle and -100% = no light), 24 h; series mostly up to 57.5 µM; activity change, negative = inhibition: at the top concentration
In short: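 Firefly luciferase signal from promoter-reporter HEK293 cells was scaled between vehicle (0%) and zero RLU (-100%). Compounds were tested at final concentrations of up to 57.5 uM over 24 h at 37 degrees C. PTC124 at 50 uM final served as control inhibitor.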

Activity change, negative = inhibition, inactive:
Cc1cccc(C)c1NC(=O)Cn1c(=O)cc(C)c2c(C)nn(-c3cccc(Cl)c3C)c21 -11.7%, CCOc1ccccc1NC(=O)Cn1c(=O)n(Cc2ccccc2)c(=O)c2c3c(sc21)CN(C(C)=O)CC3 -13.3%, O=C(CCC1N=C2c3ccccc3N=C(SCc3ccc(Cl)cc3)N2C1=O)NC1CCCCC1 (configuration not stated) -16.6%, Cc1ccc(-n2ncc3c(N4CCCCC4)ncnc32)cc1 -91.8%, O=C(CN1CCN(C2CCCCC2)C(=O)C1=O)Nc1ccc(Cl)cc1 -14.4%, CCC(=O)Nc1ccccc1C(=O)OCc1cc(=O)n2cc(C)sc2n1 -20.6%, COc1ccc(OC)c(NC(=O)Cn2c(CCC(=O)O)ccc2-c2ccccc2)c1 -12.6%, CC(C)CCN1C(=O)c2ccccc2CC1(C)C(=O)NC1CCCCC1 (configuration not stated) -21.7%, CC1CC(=O)N(CC(=O)Nc2ccc(OC(F)(F)F)cc2)c2ccccc2S1 (configuration not stated) -20.6%, Cc1cccc(N(C)C(=O)c2cc3c(=O)oc4ccc(C)cc4c3s2)c1 -8.05%, Cc1ccc(CCNC(=O)c2cc3cc(S(=O)(=O)N4CCCCC4)ccc3n2C)cc1 -20.6%, CCOc1ccc(-n2nc3ccc(NC(=O)c4ccc(C)cc4C)cc3n2)cc1 -2.31%, CCN1CCOC(=O)C1CC(=O)Nc1cc(Cl)ccc1C (configuration not stated) -0.817%, CCN1CCN(CCCNC(=O)c2cnn(-c3ccc(OC)cc3)c2C2CCN(C(=O)OC(C)(C)C)CC2)CC1 0.273%, COc1ccc(Cl)cc1C(=O)NCCc1ccc(S(=O)(=O)NC(=O)NC2CCCCC2)cc1 -12.3%, COC(=O)c1ccc(C(=O)OC)c(NC(=O)c2cnn3c(C(F)F)cc(-c4ccc(C)cc4)nc23)c1 -11%, CCOC(=O)c1ccc(Nc2nc3ccccc3n3c(C)nnc23)cc1 3.44%, CCOCCc1nn2c(=O)cc(COC(=O)c3ccccc3NC(=O)CC(C)C)nc2s1 -8.43%, COc1ccc(N(C)S(=O)(=O)c2ccc3c(c2)n(C)c(=O)c(=O)n3C)cc1 5.91%, O=C(Cn1c(-c2cccs2)cc2cc(F)ccc21)N1CCCCC1 -18.9%, COC(=O)c1scc(-c2ccc(C)cc2)c1S(=O)(=O)N1CCN(c2ccccc2F)CC1 -30.7%, COc1ccc(CNC(=O)Cn2ncc3c(=O)oc4ccc(C)cc4c32)c(OC)c1 2.53%, Cc1cc(=O)n2[nH]c(NC(=O)c3cccc(Cl)c3)nc2n1 -0.646%, CC1=Nc2cc(C(=O)N3CCCCC3)ccc2Sc2ccc(C)cc21 -11.7%, Cc1c(C(=O)NCc2ccc(OC(C)C)cc2)sc2ncnc(N(C)C3CCCCC3)c12 -27.1%, COc1ccccc1CCNC(=O)CCCn1c(=O)c2cccn2c2cccnc21 -9.76%, COc1ccc(-c2nc(CN3CCC(C(=O)NCc4ccc(F)cc4)CC3)c(C)o2)cc1OC -0.764%, CCCC(=O)Nc1nnc(SCc2cc(=O)n3cccc(C)c3n2)s1 -7.59%, CCCN(CCC)CCNC(=O)c1nn(C)c2c1CS(=O)(=O)c1ccccc1-2 6.29%, CCOC(=O)c1c(NC(=O)/C=C/c2ccc(Cl)cc2)sc2c1CCC(C)C2 (configuration not stated) -6.1%, COc1ccc(CCC(=O)NC2CC(=O)N(c3ccccc3)C2)cc1 (configuration not stated) -13.9%, Cc1ccccc1C(=O)n1nc(-c2ccco2)nc1NCc1cccs1 -4.76%, Cc1ccc2[nH]c(CSc3nnc(NC(=O)COc4ccc(F)cc4)s3)cc(=O)c2c1 -6.18%, COc1cc(Cl)c(C)cc1NC(=O)c1nn(C)c2c1CSc1ccccc1-2 -7.59%, O=C(CCCCn1c(=O)c2ccccc2n(Cc2cccc(Cl)c2)c1=O)NCc1ccc2c(c1)OCO2 -7.22%, COc1ccc(CNC(=O)c2cc(-c3ccc(Cl)cc3)n[nH]2)cc1 2.69%, O=C(NCc1nc(-c2ccccc2)no1)c1ccco1 11.9%, CCn1cc(C(=O)NCCc2ccccc2)c(=O)c2cc(S(=O)(=O)N3CCc4ccccc4C3)ccc21 -11.3%, CCCN(CCC)CCCNC(=O)c1cn(C)c2ccc(S(=O)(=O)N3CCOCC3)cc2c1=O -1.02%, CCCn1c2ccccc2c2cnn(CC(=O)NCCCN(Cc3ccccc3)C(C)C)c(=O)c21 -8.8%, COc1ccc(-c2cc(C)no2)cc1S(=O)(=O)N1CCOc2ccc(Cl)cc21 -23.8%, COc1ccc(Nc2cc(C(=O)NCCCN(C)C3CCCCC3)c3ccccc3n2)c(OC)c1 -24.6%, COC(=O)c1ccc2c(=O)n(CCCCCC(=O)NCc3ccc(OC)cc3)c(=O)[nH]c2c1 -17.1%, CC(C)c1ccc(NC(=O)CN2C(=O)COc3ccc(S(=O)(=O)N4CCOCC4)cc32)cc1 -1.18%, CCC(C)NC(=O)CN1C(=O)c2cccnc2Oc2ccc(C)cc21 (configuration not stated) 9.92%, COc1ccc(CCNc2nc(SCc3cccc(F)c3)nc3ccccc23)cc1OC -3.32%, COc1ccc(NC(=O)C2CCCN(S(=O)(=O)c3c(C)[nH]c(=O)[nH]c3=O)C2)cc1Cl (configuration not stated) 1.2%, CCc1cc2c(cc3c(=O)n(CC(=O)NCCc4ccccc4)ncn32)s1 -0.138%, Cc1ccc(C)c(NC(=O)c2ccc3c(c2)CCN3S(=O)(=O)c2ccccc2)c1 -30%, CCC(Sc1nc2ncccc2o1)C(=O)Nc1cccc(C)c1 (configuration not stated) 24%, COc1ccc2oc(=O)c(-c3nc(-c4ccc(C)c(C)c4)cs3)cc2c1 -0.351%, CCc1ccc(C2c3c(-c4ccccc4)n[nH]c3C(=O)N2c2ccc(C(=O)O)cc2)cc1 (configuration not stated) -15.7%, COc1cccc(-n2cc(C(=O)NCc3ccc(C)cc3)c3ccccc3c2=O)c1 -18.2%, O=C(CN1N=C(c2ccccc2)CCC1=O)NCc1ccc(F)cc1Cl -6.93%, COc1ccc(CCNC(=O)Cn2cc(S(=O)(=O)Cc3ccccc3Cl)c3ccccc32)cc1OC -8.61%, O=C(CSc1nnc(-c2ccccc2F)o1)Nc1ccccc1Cl 42.5%, CCSc1nnc2c(n1)OC(c1ccc(C)s1)Nc1ccccc1-2 (configuration not stated) 18.1%, COc1ccc(-c2cc(OC(=O)c3cccc(Cl)c3)c3c(C)oc(C)c3c(=O)c2)cc1 29.5%, CCOc1ccc(NC(=O)Cn2nnc(C(=O)NCCc3ccccc3)c2N)cc1 -26.9%, COc1ccc(-c2noc(-c3ccc(NCC4CCCO4)c([N+](=O)[O-])c3)n2)cc1 (configuration not stated) -12%, CCc1nn(CC(=O)Nc2c(C)cccc2C)c(=O)c2cc3sccc3n12 0.907%, CCOC(=O)c1noc2ncn(CC(=O)Nc3cccc(Cl)c3)c(=O)c12 0.593%, COc1ccccc1NC(=O)CSc1oc(-c2ccccc2)nc1S(=O)(=O)c1ccc(C)cc1 -23.1%, Cc1ccc2nc(-c3cccnc3)c(Nc3ccc(C(C)C)cc3)n2c1 -24.8%, O=C(COc1ccc2ccccc2c1)NC1CC(=O)N(c2ccccc2)C1 (configuration not stated) -22.9%, O=C(c1ccc(F)cc1)n1nc(-c2cccnc2)nc1NCc1ccc(F)cc1 -29%, O=C(NCCc1ccc(Cl)cc1)C1COc2ccccc2C1 (configuration not stated) -2.03%, Cc1cn2c(=O)c(S(=O)(=O)N3CCN(c4cc(Cl)ccc4C)CC3)c(C)nc2s1 -7.19%, CCOC(=O)c1ccc(NC(=O)c2cn(-c3ccccc3)nc2-c2ccc(OC)c(OC)c2)cc1 -1.07%, O=C(Nc1cccc(-c2nc3cccnc3s2)c1)c1cccc(Br)c1 -25.1%, Cc1ccc(S(=O)(=O)c2nc(-c3cccs3)oc2SC(C)C)cc1 -24.6%, N#Cc1ccccc1NC(=O)C(=O)NCCc1csc(-c2ccc(F)cc2)n1 -14.5%, CCNC(=O)CC1C(=O)N(c2ccc(C)cc2)C(=O)N1CCC(C)C (configuration not stated) -17.3%, O=C(Cn1c(=O)oc2cc(S(=O)(=O)N3CCCC3)ccc21)Nc1ccc(F)cc1F -26.8%, CCCCOc1cccc(NC(=O)c2cccc(C(=O)Nc3cccc(OCCCC)c3)c2)c1 23.1%, CCOC(=O)c1c(C)oc2nc(C)nc(NCc3cccc(Cl)c3)c12 -10%, O=C(c1cccc(Cl)c1)n1nc(-c2cccnc2)nc1NCc1ccccc1 -18.2%, CCOC(=O)C1=C(N)Oc2ccc(Br)cc2C1C(C#N)C(=O)OCC (configuration not stated) 11.6%, CCOC(=O)c1nc(Nc2ccc(C(=O)OC)cc2)c2ccccc2n1 -19.2%, CSCCC(NS(=O)(=O)c1ccc2c(c1)oc(=O)n2C)C(=O)N1CCN(c2ccc(C(C)=O)cc2)CC1 (configuration not stated) -5.12%, COc1cccc(C(=O)NCC(=O)OCc2cc(=O)n3ccsc3n2)c1 -13.4%, CCc1ccccc1NC(=O)c1ccc(=O)n(Cc2ccc(F)cc2)c1 -14%, CCc1ccc(-n2c(=O)c3cccnc3n2CC(=O)Nc2cc(OC)ccc2OC)cc1 1.28%, COc1cc(OC)cc(C(=O)Nc2nnc3n2CCS3)c1 0.745%, Cc1ccc(C(=O)Nc2nc(-c3nnn(-c4cccc(C(F)(F)F)c4)c3C)ns2)cc1 -25.8%, Cc1ccc(CCNC(=O)c2cn(C)c3ccc(S(=O)(=O)N4CCC(C)CC4)cc3c2=O)cc1 0.608%, Cc1cc(C)c(NC(=O)CCCn2c(C)c3cnn(-c4ccccc4)c(=O)c3c2C)c(C)c1 -27.5%, CC(C)CC(=O)Nc1nnc(SCc2cc(=O)n3ccccc3n2)s1 -5.25%, CCOC(=O)c1c(S(=O)(=O)NCC(=O)Nc2ccc(F)cc2C)c(C)n(C)c1C -6.46%, COc1cc(OC)cc(-c2nc3nc(C)c(CCC(=O)NCCC(C)C)c(C)n3n2)c1 0.0846%, O=c1c(S(=O)(=O)c2cccc(Cl)c2)cn(Cc2ccccc2)c2cc(N3CCCCC3)c(F)cc12 -10.1%, COc1ccccc1NC(=O)CN1C(=O)CSc2ccc(S(=O)(=O)N3CCCC3)cc21 -9.82%, CCn1ccc2cc(S(=O)(=O)N3CCC(C(=O)NCCc4ccccc4)CC3)ccc21 0%, CC(=O)C1=C(c2ccc(Br)cc2)N(C(C)=O)n2c(nnc2C2CCCCC2)S1 -15.8%, COc1cc(OC)c(NC(=O)c2c(C)oc3nc(C)nc(N4CCOCC4)c23)cc1Cl 1.13%, COc1cccc(-n2cc(C(=O)OCc3ccc(Cl)cc3)c3ccccc3c2=O)c1 -24.3%, Cc1cccc(CNC(=O)c2ccc(C)c(-n3c(C)nc4cccnc43)c2)c1 -14%
